# This is one part of the list.
# What was measured:
# Assay in all cases: glycan array binding signal (z-score within array); higher = stronger binding
# Settings in all cases: glycan notation: IUPAC condensed, linker removed
# [1] = biological target: Neu5Ac(a2-3)Gal(b1-4)GlcNAc(b1-3)Gal(b1-3)GlcNAc
# In short: (§1)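 The Consortium for Functional Glycomics database supplied 3228 glycan arrays, of which those lacking an available protein sequence were dropped. The binding signal, a within-array Z-score, was averaged across arrays of the same protein sequence and across linkers. Negative scores can be read as non-binding.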
# [2] = biological target: Neu5Ac(a2-3)Gal(b1-4)GlcNAc(b1-3)Gal(b1-4)GlcNAc
# In short: as §1
# [3] = biological target: Neu5Ac(a2-3)Gal(b1-4)GlcNAc(b1-3)Gal(b1-4)GlcNAc(b1-3)Gal(b1-4)GlcNAc
# In short: as §1
# [4] = biological target: Neu5Ac(a2-3)Gal(b1-4)GlcNAc(b1-3)Gal(b1-4)[Fuc(a1-3)]GlcNAc
# In short: as §1
# [5] = biological target: Neu5Ac(a2-3)Gal(b1-4)GlcNAc(b1-3)GalNAc
# In short: as §1
# [6] = biological target: Neu5Ac(a2-3)Gal(b1-4)GlcNAc(b1-6)[Gal(b1-3)]GalNAc
# In short: as §1
# [7] = biological target: Neu5Ac(a2-3)Gal(b1-4)GlcNAc(b1-6)[Neu5Ac(a2-3)Gal(b1-3)]GalNAc
# In short: as §1
# [8] = biological target: Neu5Ac(a2-3)Gal(b1-4)GlcNAc6S
# In short: as §1
# [9] = biological target: Neu5Ac(a2-3)Gal(b1-4)[Fuc(a1-3)]GlcNAc
# In short: as §1
# [10] = biological target: Neu5Ac(a2-3)Gal(b1-4)[Fuc(a1-3)]GlcNAc(b1-3)Gal
# In short: as §1
# [11] = biological target: Neu5Ac(a2-3)Gal(b1-4)[Fuc(a1-3)]GlcNAc(b1-3)Gal(b1-4)GlcNAc
# In short: as §1
# [12] = biological target: Neu5Ac(a2-3)Gal(b1-4)[Fuc(a1-3)]GlcNAc(b1-3)Gal(b1-4)[Fuc(a1-3)]GlcNAc(b1-3)Gal(b1-4)[Fuc(a1-3)]GlcNAc
# In short: as §1
# [13] = biological target: Neu5Ac(a2-3)Gal(b1-4)[Fuc(a1-3)]GlcNAc(b1-3)GalNAc
# In short: as §1
# [14] = biological target: Neu5Ac(a2-3)Gal(b1-4)[Fuc(a1-3)]GlcNAc(b1-6)[Gal(b1-3)]GalNAc
# In short: as §1
# [15] = biological target: Neu5Ac(a2-3)Gal(b1-4)[Fuc(a1-3)]GlcNAc(b1-6)[Neu5Ac(a2-3)Gal(b1-3)]GalNAc
# In short: as §1
# [16] = biological target: Neu5Ac(a2-3)Gal(b1-4)[Fuc(a1-3)]GlcNAc6S
# In short: as §1
# [17] = biological target: Neu5Ac(a2-3)Gal6S(b1-4)GlcNAc
# In short: as §1
# [18] = biological target: Neu5Ac(a2-3)Gal6S(b1-4)[Fuc(a1-3)]GlcNAc
# In short: as §1
# [19] = biological target: Neu5Ac(a2-3)GalNAc
# In short: as §1
# [20] = biological target: Neu5Ac(a2-3)GalNAc(b1-4)GlcNAc
# In short: as §1
# [21] = biological target: Neu5Ac(a2-3)[GalNAc(b1-4)]Gal(b1-4)Glc
# In short: as §1
# [22] = biological target: Neu5Ac(a2-3)[GalNAc(b1-4)]Gal(b1-4)GlcNAc
# In short: as §1
# [23] = biological target: Neu5Ac(a2-3)[GalNAc(b1-4)]Gal(b1-4)GlcNAc(b1-3)GalNAc
# In short: as §1
# [24] = biological target: Neu5Ac(a2-3)[Neu5Ac(a2-6)]GalNAc
# In short: as §1
# [25] = biological target: Neu5Ac(a2-6)Gal
# In short: as §1
# [26] = biological target: Neu5Ac(a2-6)Gal(b1-3)GlcNAc(b1-3)[Gal(b1-4)GlcNAc(b1-6)]Gal(b1-4)Glc
# In short: as §1
# [27] = biological target: Neu5Ac(a2-6)Gal(b1-4)Glc
# In short: as §1
# [28] = biological target: Neu5Ac(a2-6)Gal(b1-4)GlcNAc
# In short: as §1
# [29] = biological target: Neu5Ac(a2-6)Gal(b1-4)GlcNAc(b1-2)Man(a1-3)Man(b1-4)GlcNAc(b1-4)GlcNAc
# In short: as §1
# [30] = biological target: Neu5Ac(a2-6)Gal(b1-4)GlcNAc(b1-2)Man(a1-3)[Gal(b1-4)GlcNAc(b1-2)Man(a1-6)]Man(b1-4)GlcNAc(b1-4)GlcNAc
# In short: as §1
# [31] = biological target: Neu5Ac(a2-6)Gal(b1-4)GlcNAc(b1-2)Man(a1-3)[GlcNAc(b1-2)Man(a1-6)]Man(b1-4)GlcNAc(b1-4)GlcNAc
# In short: as §1
# [32] = biological target: Neu5Ac(a2-6)Gal(b1-4)GlcNAc(b1-2)Man(a1-3)[GlcNAc(b1-2)Man(b1-4)GlcNAc(b1-2)Man(a1-6)]Man(b1-4)GlcNAc(b1-4)GlcNAc
# In short: as §1
# [33] = biological target: Neu5Ac(a2-6)Gal(b1-4)GlcNAc(b1-2)Man(a1-3)[Man(a1-6)]Man(b1-4)GlcNAc(b1-4)GlcNAc
# In short: as §1
# [34] = biological target: Neu5Ac(a2-6)Gal(b1-4)GlcNAc(b1-2)Man(a1-3)[Neu5Ac(a2-6)Gal(b1-4)GlcNAc(b1-2)Man(a1-6)]Man(b1-4)GlcNAc(b1-4)GlcNAc
# In short: as §1
# [35] = biological target: Neu5Ac(a2-6)Gal(b1-4)GlcNAc(b1-2)Man(a1-6)Man(b1-4)GlcNAc(b1-4)GlcNAc
# In short: as §1
binder,measurement,setting,value
"BC2L-A (Burkholderia cenocepacia), Q1BKJ8_BURCA (protein) ADSQTSSNRAGEFSIPPNTDFRAIFFANAAEQQHIKLFIGDSQEPAAYHKLTTRDGPREATLNSGNGKIRFEVSVNGKPSATDARLAPINGKKSDGSPFTVNFGIVVSEDGHDSDYNDGIVVLQWPIG",glycan array binding signal (z-score),[1],-0.291
same,glycan array binding signal (z-score),[2],-0.289
same,glycan array binding signal (z-score),[3],-0.291
same,glycan array binding signal (z-score),[4],-0.292
same,glycan array binding signal (z-score),[5],-0.296
same,glycan array binding signal (z-score),[6],-0.299
same,glycan array binding signal (z-score),[7],-0.234
same,glycan array binding signal (z-score),[8],-0.295
same,glycan array binding signal (z-score),[9],-0.291
same,glycan array binding signal (z-score),[10],-0.291
same,glycan array binding signal (z-score),[11],-0.255
same,glycan array binding signal (z-score),[12],-0.163
same,glycan array binding signal (z-score),[13],-0.255
same,glycan array binding signal (z-score),[14],-0.294
same,glycan array binding signal (z-score),[15],-0.237
same,glycan array binding signal (z-score),[16],-0.293
same,glycan array binding signal (z-score),[17],-0.272
same,glycan array binding signal (z-score),[18],-0.292
same,glycan array binding signal (z-score),[19],-0.293
same,glycan array binding signal (z-score),[20],-0.288
same,glycan array binding signal (z-score),[21],-0.295
same,glycan array binding signal (z-score),[22],-0.28
same,glycan array binding signal (z-score),[23],-0.218
same,glycan array binding signal (z-score),[24],-0.293
same,glycan array binding signal (z-score),[25],-0.29
same,glycan array binding signal (z-score),[26],-0.219
same,glycan array binding signal (z-score),[27],-0.287
same,glycan array binding signal (z-score),[28],-0.29
same,glycan array binding signal (z-score),[29],-0.285
same,glycan array binding signal (z-score),[30],-0.288
same,glycan array binding signal (z-score),[31],-0.111
same,glycan array binding signal (z-score),[32],-0.28
same,glycan array binding signal (z-score),[33],2.25
same,glycan array binding signal (z-score),[34],-0.261
same,glycan array binding signal (z-score),[35],-0.238
